Laboratory results as given in PubChem BioAssay AID463254 (National Center for Advancing Translational Sciences (NCATS), 2010).
Out of some 330,000 compounds screened, about 40 (0.01%) were called active. The inconclusive results got no clear call from the source; some entries with a clear call stand among them for comparison. Calls come from the whole dose curve; as a rule, active = well fitted inhibition curve with a large enough effect; inconclusive = small, poorly fitted or top-dose-only effect, or effect the other way; inactive = flat fitted curve, though single readings scatter. A potency beside an inconclusive call is a rough fit, not a confirmed value.
Potency is the fitted concentration of half-maximal effect; tags give direction and shape of the fitted curve or compound fluorescence and quenching.
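Throughout, for activity change, negative = inhibition: plate controls were DMSO wells for no effect and full inhibition by NEM control for full effect.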

These molecules were tested against Ubiquitin carboxyl-terminal hydrolase 2 (Homo sapiens) (UniProt O75604) (assay: qHTS Assay for Inhibitors of Ubiquitin-specific Protease USP2a Using CHOP2 as the Reporter). Conditions: USP2 core, Ub-CHOP2 coupled fluorogenic reporter, 485/531; activity change, negative = inhibition: at 38.3 µM (top of the series).
Sequence of UniProt O75604 (O75604 whole entry, looked up): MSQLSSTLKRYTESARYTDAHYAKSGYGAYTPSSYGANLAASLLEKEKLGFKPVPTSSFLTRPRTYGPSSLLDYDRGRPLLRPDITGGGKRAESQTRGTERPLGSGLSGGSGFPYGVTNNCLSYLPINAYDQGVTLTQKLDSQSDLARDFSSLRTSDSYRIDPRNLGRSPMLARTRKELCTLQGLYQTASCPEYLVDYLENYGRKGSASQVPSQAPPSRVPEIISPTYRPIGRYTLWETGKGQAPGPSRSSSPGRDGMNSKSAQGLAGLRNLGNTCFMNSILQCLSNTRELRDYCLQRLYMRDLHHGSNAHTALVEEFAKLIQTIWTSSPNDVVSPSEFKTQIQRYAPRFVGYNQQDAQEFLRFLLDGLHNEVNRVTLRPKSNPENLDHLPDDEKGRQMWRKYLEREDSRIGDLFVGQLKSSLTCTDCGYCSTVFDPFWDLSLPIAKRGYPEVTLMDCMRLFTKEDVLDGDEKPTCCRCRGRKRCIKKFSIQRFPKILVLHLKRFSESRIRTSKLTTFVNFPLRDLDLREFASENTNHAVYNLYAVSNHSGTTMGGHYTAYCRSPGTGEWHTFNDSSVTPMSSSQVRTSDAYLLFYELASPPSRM
Method in brief: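 Cell-free coupled assay: 10nM USP2 core preincubated 30min RT with compound in Tris-HCl pH 8.0/CaCl2/CHAPS buffer, then 25nM Ub-CHOP2 and 25nM reporter substrate; fluorescence (Ex 485/Em 531) read after 60min RT, normalized to NEM inhibition, concentration-response curves fitted.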
In the case of `Cc1ccc(C(=O)CSc2nnc(CNc3nc(-c4ccccc4)cs3)n2C)cc1`, the Potency was inconclusive: 25.1 µM [falling, single point].
In the case of `Cc1oc(-c2ccc(Cl)cc2)cc1-c1nn2c(-c3ccoc3C)nnc2s1`, the Potency was inconclusive: 20 µM [falling, single point].
In the case of `Cn1c2ccccc2c2nnc(SCN3C(=O)c4ccccc4C3=O)nc21`, the Potency was inconclusive: 28.2 µM [falling, single point].
For `O=C(O)COc1cccc(/C=C2/SC(=S)N(Cc3ccccc3)C2=O)c1`, the “activity change, negative = inhibition” value was inactive: 0.207%.
With `COC(=O)c1[nH]c(=O)c2ccccc2c1OCc1ccccc1` the Potency was inconclusive: 5.01 µM [falling, single point].
With `FC(F)Sc1ccc(NC(=S)NC2CCCCC2)cc1` the Potency was inconclusive: 28.2 µM [falling, single point].
For `CCc1c(C2(O)CCCCC2)[nH]c2cc(C(F)(F)F)ccc12`, the “activity change, negative = inhibition” value was inactive: -1.33%.
`O=C(CCl)c1ccc2c(c1)CCN2C(=O)C1CC1` was tested, and the “activity change, negative = inhibition” value was inactive: -0.581%.
With `NC(=O)c1c(NC(=O)CSc2nnc(-c3ccco3)n2N)sc2c1CCCC2` the Potency was inconclusive: 20 µM [falling, single point].
In the case of `COc1ccc(Cl)cc1S(=O)(=O)Nc1cccc(C(=O)O)c1`, the Potency was inconclusive: 28.2 µM [falling, single point].
In the case of `COc1cc(C(=O)Nc2ccc(C(F)(F)F)cc2)ccc1OCC(=O)N1CCOCC1`, the “activity change, negative = inhibition” value was inactive: -1.11%.
`COCCN1Cc2cccc(C(=O)N3CCN(c4cc(C)ccc4C)CC3)c2C1=O` was tested, and the Potency was inconclusive: 28.2 µM [falling, single point].
For `Cc1cccc(OCC(=O)N/N=C/C=C/c2ccco2)c1`, the Potency was inconclusive: 28.2 µM [falling, single point].
`O=C(Nc1ccccc1)Nc1snnc1C(=O)Nc1cccc(O)c1` was tested, and the Potency was inconclusive: 28.2 µM [falling, single point].
In the case of `Nc1c(C(=O)Nc2ccc3c(c2)OCCO3)nnn1CCc1ccccc1`, the Potency was inconclusive: 14.1 µM [falling, single point].
In the case of `COc1ccc(C2=NNC(c3cccs3)=Nc3ccc(OC)cc32)cc1`, the “activity change, negative = inhibition” value was inactive: 1.91%.
For `CCOc1ccc(CCn2c(-c3ccco3)nc3ccccc3c2=O)cc1OCC`, the Potency was inconclusive: 3.55 µM [falling, single point].
`CC(C)(C)c1nnc2sc(SCC(=O)c3ccc(Cl)cc3)nn2c1=O` was tested, and the Potency was inconclusive: 14.1 µM [fluorescent, single point].
`CC1Oc2ccccc2C=C1/C=N/Nc1ccc(C(=O)O)cc1` (centres undefined) was tested, and the “activity change, negative = inhibition” value was inactive: 2.17%.
`O=C(COC(=O)c1c2c(nc3ccccc13)/C(=C/c1ccco1)CC2)NC1CCCC1` was tested, and the Potency was inconclusive: 28.2 µM [falling, single point].
For `CCOc1ccc(NC(=O)c2ccc(NC(=O)COC(=O)c3ccc(NC(=O)CC#N)cc3)cc2)cc1`, the Potency was active: 7.94 µM.
In the case of `CN(C)c1ccc(N=Nc2cccc(F)c2)cc1`, the “activity change, negative = inhibition” value was inactive: 0.403%.
With `COc1ccc(CC(=O)N/N=C(\C)c2cccnc2)cc1` the “activity change, negative = inhibition” value was inactive: -0.601%.
`Cc1nc(Cl)c2c(n1)NC1=C(O2)C(=O)CCC1` was tested, and the Potency was inconclusive: 10 µM [fluorescent, partial curve].
With `Oc1ccc(COC2CCCC2)c2cccnc12` the “activity change, negative = inhibition” value was inactive: 0.811%.
In the case of `CCn1c(SCC(=O)Nc2nc3c(s2)CCCC3)nc2c1c(=O)n(C)c(=O)n2C`, the Potency was inconclusive: 28.2 µM [falling, single point].
`CCOc1ccc(C=NNc2ccc(S(=O)(=O)Nc3ccccc3C(=O)O)cc2[N+](=O)[O-])cc1` was tested, and the Potency was inconclusive: 28.2 µM [falling, single point].
With `Cc1nc2cc(N3CCCCC3)c(NC(=O)c3cccnc3)cc2c(=O)n1Cc1ccccc1` the “activity change, negative = inhibition” value was inactive: -14.5%.
`COc1cc([N+](=O)[O-])c(OC)cc1SCc1n[nH]c(=S)n1-c1ccc(F)cc1` was tested, and the “activity change, negative = inhibition” value was inactive: 0.12%.
`O=C(CSc1nc2ccc(Cl)cc2[nH]1)c1ccc2c(c1)OCO2` was tested, and the “activity change, negative = inhibition” value was inactive: -4.27%.
`COc1ccc2oc(C(=O)OCC(=O)NC(C)c3ccccc3)c(C)c2c1` (centres undefined) was tested, and the “activity change, negative = inhibition” value was inactive: 0.87%.
In the case of `CN1CCS/C1=C/C=C1\SC(=S)N(CC(=O)O)C1=O`, the Potency was inconclusive: 11.2 µM [fluorescent, partial curve].
In the case of `CCOC(=O)c1ccc(N=Nc2c(C)c(C#N)c(O)[nH]c2=O)cc1`, the Potency was inconclusive: 25.1 µM [fluorescent, single point].
For `C=CCn1c(COc2ccccc2)nnc1SCC(=O)N/N=C/c1ccc(C)cc1`, the “activity change, negative = inhibition” value was inactive: 1.39%.
`O=c1oc2ccccc2n1Cn1c(=O)oc2ccccc21` was tested, and the Potency was inconclusive: 28.2 µM [falling, single point].
For `Cc1ccc2[nH]c(C)c(/C=C/c3cc[n+](C)cc3)c2c1`, the Potency was inconclusive: 12.6 µM [fluorescent, single point].
`CCC(C)NC(=O)CSC1=Nc2ccccc2C2=NC(c3ccccc3)C(=O)N12` (centres undefined) was tested, and the Potency was inconclusive: 5.01 µM [falling, single point].
In the case of `CCOC(=O)c1[nH]c(CN2CCN(c3ccc(OC)cc3)CC2)c(C(=O)OCC)c1C`, the “activity change, negative = inhibition” value was inactive: -4.73%.
For `Oc1[nH]c2ccccc2c1N=Nc1ccccc1`, the Potency was inconclusive: 11.2 µM [fluorescent, partial curve].
In the case of `Cc1ccc(SCC(=O)Nc2ccc(C(=O)Nc3ccc(O)cc3)cc2)cc1`, the Potency was active: 11.2 µM.
`O=c1oc2c(O)cccc2cc1-c1nc2ccccc2[nH]1` was tested, and the Potency was inconclusive: 6.31 µM [fluorescent, partial curve].
In the case of `COc1ccc(-n2c(O)c(/C=N/n3cnnc3)c3ccccc3c2=O)cc1`, the Potency was inconclusive: 28.2 µM [falling, single point].
With `COC(=O)c1cc(-c2ccc(Br)cc2)n[nH]1` the “activity change, negative = inhibition” value was inactive: 1.39%.
`O=c1nc(N2CCOCC2)ccn1-c1nc(-c2ccccc2)sc1-c1ccccc1` was tested, and the “activity change, negative = inhibition” value was inactive: 0.43%.
`CN1CCN(C(=O)CSc2nc(-c3ccncc3)ccc2C#N)CC1` was tested, and the “activity change, negative = inhibition” value was inactive: 0.142%.
For `O=C1NC(=Nc2ccc3ccccc3c2)S/C1=C/c1ccco1`, the Potency was inconclusive: 28.2 µM [falling, single point].
`Cc1ccc(C)c(OCC(=O)Nc2cc(NC(=O)COc3cc(C)ccc3C)cc(C(=O)O)c2)c1` was tested, and the Potency was inconclusive: 28.2 µM [falling, single point].
For `COc1ccccc1NC(=O)CSc1nc(O)cc(=O)n1-c1ccccc1OC`, the Potency was inconclusive: 15.8 µM [falling, single point].
In the case of `CC(C(=O)O)N1C(=O)/C(=C/C=C/c2ccco2)SC1=S` (centres undefined), the Potency was inconclusive: 22.4 µM [falling, single point].
`O=C(Cc1cc(=O)[nH]c(=O)[nH]1)NCC1CCCO1` (centres undefined) was tested, and the Potency was inconclusive: 5.01 µM [falling, single point].
In the case of `CC1CCCN(CCCNC(=O)c2coc3nc4ccccc4nc23)C1` (centres undefined), the “activity change, negative = inhibition” value was inactive: 2.21%.
In the case of `COC(=O)c1ccc(Sc2ccccn2)c([N+](=O)[O-])c1`, the “activity change, negative = inhibition” value was inactive: 3.72%.
`CC1CCCCN1CCNC(=O)CC1Oc2ccccc2NC1=O` (centres undefined) was tested, and the Potency was inconclusive: 28.2 µM [falling, single point].
In the case of `CCOc1ccc(C(=O)c2ccc(OCC)c(N)c2)cc1N`, the Potency was inconclusive: 28.2 µM [falling, single point].
With `O=[N+]([O-])c1cc(S(=O)(=O)NCCN2CCOCC2)ccc1Cl` the “activity change, negative = inhibition” value was inactive: -0.631%.
In the case of `c1ccc(NCc2nc3ccccc3n2CCOc2ccccc2)cc1`, the “activity change, negative = inhibition” value was inactive: 0.407%.
`C=C(C)COc1ccc(-c2[nH]ncc2Oc2ccccc2OCC)c(O)c1` was tested, and the Potency was inconclusive: 8.91 µM [falling, partial curve].
With `N=c1oc2c3c4c(cc2cc1C(=O)Nc1ccccc1)CCCN4CCC3` the Potency was inconclusive: 15.8 µM [fluorescent, partial curve].
With `CCSC1=NSC2=NC(=O)/C(=C\c3coc4ccccc4c3=O)C(=N)N12` the Potency was inconclusive: 11.2 µM [fluorescent, partial curve].
For `CCN(CC)c1ccc(/C=N/OC(C)C(=O)Nc2ccc(C)cc2)cc1` (centres undefined), the “activity change, negative = inhibition” value was inactive: 0.919%.
For `CCCCN(C)C1=CC2=CC(=C(C#N)C#N)CCC2CC1` (centres undefined), the Potency was inconclusive: 6.31 µM [fluorescent, partial curve].
For `Cc1noc(NS(=O)(=O)c2ccc(N3CC(O)=C(c4ccccc4)C3=N)cc2)c1C`, the Potency was inconclusive: 28.2 µM [falling, single point].
With `CCOC(=O)c1ccc(NS(=O)(=O)c2ccc(Cl)nc2)cc1` the “activity change, negative = inhibition” value was inactive: -0.984%.
In the case of `COc1ccc(OC)c2c1C(=O)c1ccccc1C2=O`, the Potency was inconclusive: 11.2 µM [fluorescent, partial curve].
For `CCCCP(=O)(CCCC)c1ccccc1C(=O)O`, the activity change, negative = inhibition was inconclusive: 68.8% [fluorescent].
For `CC(=O)Oc1ccc2c(c1)Oc1cc(OC(C)=O)ccc1C21OC(=O)c2ccccc21`, the Potency was inconclusive: 7.08 µM [fluorescent, partial curve].
In the case of `N#C/C(C(=O)c1ccccc1)=C1/SC=C(N)N1c1ccccc1`, the Potency was inconclusive: 5.01 µM [falling, single point].
With `CN(C)S(=O)(=O)c1cccc(NC(=O)CSc2nnnn2-c2ccccc2)c1` the “activity change, negative = inhibition” value was inactive: 3.48%.
In the case of `COc1ccc(NC(=S)NC(=O)/C=C/c2ccco2)cc1`, the Potency was inconclusive: 28.2 µM [falling, single point].
`O=C(CSc1ccc2nnc(-c3cccc(F)c3)n2n1)N1CCCc2ccccc21` was tested, and the Potency was inconclusive: 20 µM [falling, single point].
For `COC(=O)c1cc2sc(Cl)cc2n1Cc1nc(-c2ccccc2)oc1C`, the Potency was inconclusive: 2.82 µM [falling, single point].
`CCOC(=O)c1cc2n(c1N)-c1ccccc1C2=O` was tested, and the Potency was inconclusive: 4.47 µM [fluorescent, full curve].
In the case of `CCn1c(N)c(C(=O)NCc2cccnc2)sc1=S`, the “activity change, negative = inhibition” value was inactive: 0.0886%.
`CC1(C)CC(=O)C2=C(C1)NCN(CCCN1CCOCC1)C2` was tested, and the Potency was inconclusive: 3.16 µM [falling, single point].
